In the experiment the target is T1, human NPRA (hNPRA) (Homo sapiens, UniProt P16066).
T1 construct: expressed in transfected cells
T1 sequence (P16066 33-1061): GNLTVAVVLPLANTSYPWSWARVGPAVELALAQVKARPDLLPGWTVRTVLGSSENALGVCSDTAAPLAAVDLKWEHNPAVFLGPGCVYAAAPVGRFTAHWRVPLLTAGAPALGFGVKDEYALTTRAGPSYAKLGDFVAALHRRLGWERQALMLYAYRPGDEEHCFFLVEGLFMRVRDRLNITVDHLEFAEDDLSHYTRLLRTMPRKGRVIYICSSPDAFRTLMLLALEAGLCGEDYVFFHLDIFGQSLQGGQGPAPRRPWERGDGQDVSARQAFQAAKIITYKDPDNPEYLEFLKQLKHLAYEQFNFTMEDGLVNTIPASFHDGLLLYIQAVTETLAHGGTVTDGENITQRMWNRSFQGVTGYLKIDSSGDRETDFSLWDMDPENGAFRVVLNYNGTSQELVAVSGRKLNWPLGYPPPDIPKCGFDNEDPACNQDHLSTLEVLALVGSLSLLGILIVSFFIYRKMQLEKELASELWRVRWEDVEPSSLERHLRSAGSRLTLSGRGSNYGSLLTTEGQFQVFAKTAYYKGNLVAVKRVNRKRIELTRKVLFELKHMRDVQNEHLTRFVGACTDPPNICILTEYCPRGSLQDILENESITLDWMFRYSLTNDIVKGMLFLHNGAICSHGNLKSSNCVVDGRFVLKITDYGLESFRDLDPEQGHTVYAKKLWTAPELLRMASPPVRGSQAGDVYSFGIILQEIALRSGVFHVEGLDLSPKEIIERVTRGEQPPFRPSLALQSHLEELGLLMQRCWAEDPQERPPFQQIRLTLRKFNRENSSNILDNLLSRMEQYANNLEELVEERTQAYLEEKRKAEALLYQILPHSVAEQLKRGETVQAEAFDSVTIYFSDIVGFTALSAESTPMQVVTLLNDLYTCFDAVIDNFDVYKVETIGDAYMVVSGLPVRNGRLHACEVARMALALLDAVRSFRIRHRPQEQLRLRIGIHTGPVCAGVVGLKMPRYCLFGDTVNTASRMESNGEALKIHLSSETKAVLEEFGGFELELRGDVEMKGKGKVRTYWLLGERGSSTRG
In words: cGMP quantification (HTRF) on stable hNPRA-CHO k1 cells (res, ics, pcs samples). It is filed as cell-based. The note with it: for qualit. activity: ANP engrafted constructs, summarized assessment relative to TPP-5661 (excerpt of Table 7). Here is the method: All activities shown in Tables 7 and 8 were measured on cells with heterologous over expression of human NPRA (hNPRA) by use of a cGMP quantification assay conducted according to manufacturer's instructions (cisbio; 62GM2PEH). In brief, the assay quantifies cGMP in buffered solution or cell-culture supernatants based on the competition between cGMP produced by the cell as result of the NPRA stimulation through the (natriuretic peptide) sample and d2 labelled cGMP for binding to a Cryptate labelled antibody. Sample cGMP and d2 labeled cGMP compete for binding to a limited number of sites on Cryptate labeled anti-cGMP antibodies, and consequently, HTRF® specific fluorescent signal (i.e. energy transfer) is inversely proportional to the concentration of cGMP in the sample.
Dose-response curve data were analyzed with GraphPad Prism (version 7.00 for Windows, GraphPad Software, La Jolla California USA) and EC50 were fitted according to Y=Bottom+(Top−Bottom)/(1+10^((Log EC50−X)*HillSlope)) applying constraints for bottom, top and slope (shared value for all data sets of the respective experiment).
The raw compound sample activity on stable hNPRA-CHO k1 cells was first assessed by comparison to the negative control TPP-5657 and to a positive sample, in particular TPP-5661. Controls and res were tested in quadruplets in two concentrations with a relative dilution factor of 5 aiming for a fluorescent signal (s) in the dynamic range of the assay. […] Values listed in Table 7, columns “activity res” and “stdev activity res”, represent the average of the results for the two concentrations and the respective standard deviation. Res signals less than half of the signal of the reference compound TPP-5661 (36%) were assessed as not active (n.a.).
The activity of several raw compound samples on stable hNPRA-CHO k1 cells was reassessed by comparison to reference sample TPP-5661 in 2.5-fold dilution series (8 concentrations) starting with a 5-fold dilution. The “log EC50” fit value as activity measure of the res was set in relation to the corresponding value of the reference res TPP-5661 by calculating the delta “log EC50” _compound−“log EC50” _TPP-5661; resulting values are listed in Table 7, column “rel. activity res”. […] All samples were applied in quadruplets.
The activity of isolated compound samples on stable hNPRA-CHO k1 cells was assessed by EC50 determination and comparison to reference sample TPP-5661. Samples were tested in 2.5-fold dilution series from 80 nM to 0.13 nM. The log EC50 fit value as activity measure of the ics was set in relation to the corresponding value of the reference ics TPP-5661 (−8.8) by calculating the delta log EC50_compound−log EC50_TPP-5661; resulting values are listed in Table 7, column “rel. log EC50 ics”. All samples were applied in quadruplets.
The activity of purified compound samples on stable hNPRA-CHO k1 cells was assessed in multiple experiments by EC50 determination and comparison to reference sample TPP-5661. Samples were tested in dilution series at least in quadruplets. […] The log EC50 fit value as activity measure of the pcs was set in relation to the corresponding value of the reference TPP-5661 in the respective experiment (in average −9.2, standard deviation 0.5) by calculating the delta log EC50_compound−log EC50_TPP-5661.
Compounds showing an activity in res without confirmation as ics or pcs are marked with an unified “y”, and compounds assessed as not active (“n.a.” in column “activity res”) probably due to their very low expression level (≤1 μg/ml, “n.e.” in column “μg/ml res”) are marked accordingly.

B1: B12: BNP (Hum28aa) engrafted antibody, CDRH3 (antibody)
heavy: [here about 100 residues without letters]GITGTKKYQSSPDGGSGGMVQGSGCFGRKMDRISSSSGLGCKVLRRGSYSYTYNYAEYFQHWGQGTLVTVSS[here human IgG1 constant region without letters]
light: QSVLTQPPSVSGAPGQRVTISCTGSSSNIGAGYDVHWYQQLPGTAPKLLIYGNSNRPSGVPDRFSGSKSGTSASLAITGLQAEDEADYYCQSYDSSLSGVVFGGGTKLTVLGQPKAAPSVTLFPPSSEELQANKATLVCLISDFYPGAVTVAWKADSSPVKAGVETTTPSKQSNNKYAASSYLSLTPEQWKSHRSYSCQVTHEGSTVEKTVAPTECS
As for B1, the “qualit. activity on hNPRA” value (BNP engrafted constructs, purified compound samples, stable hNPRA-CHO k1 cells) was “++ (relative log EC50<0.7 were assessed as very active)”.

B2: 43: ANP engrafted antibody, CDRH2 (antibody)
heavy: EVQLLESGGGLVQPGGSLRLSCAASGFTFSSYAMSWVRQAPGKGLEWVSAISVVVTSHQAPGEGGSGGSLRRSSCFGGRMDRIGAQSGLGCNSFRYGGSTPLKSLASTYYADSVKGRFTISRDNSKNTLYLQMNSLRAEDTAVYYCAKLTGAEYFQHWGQGTLVTVSS[here human IgG1 constant region without letters]
light: B1 light
Consider B2, for which the qualit. activity result is listed as “++ (relative log EC50<0.7 were assessed as very active)”.

B3: 91: ANP engrafted antibody, CDRH2 (antibody)
heavy: EVQLLESGGGLVQPGGSLRLSCAASGFTFSSYAMSWVRQAPGKGLEWVSAISGSGSGSGSGSGSPDGGSGGSLRRSSCFGGRMDRIGAQSGLGCNSFRYGSYGSGSGSGSGSGSTYYADSVKGRFTISRDNSKNTLYLQMNSLRAEDTAVYYCAKLTGAEYFQHWGQGTLVTVSS[here human IgG1 constant region without letters]
light: B1 light
For B3, the qualit. activity entry is “++ (relative log EC50<0.7 were assessed as very active)”.

B4: 125: ANP engrafted antibody, CDRH3 (antibody)
heavy: [here about 100 residues without letters]VHPNPNPNPNSPDGGSGGSLRRSSCFGGRMDRIGAQSGLGCNSFRYGSYNPNPNPNPHVDVWGQGTTVTVSS[here human IgG1 constant region without letters]
light: B1 light
Regarding B4, the qualit. activity result is given as “++ (relative log EC50<0.7 were assessed as very active)”.

B5: 55: ANP engrafted antibody, CDRH2 (antibody)
heavy: EVQLLESGGGLVQPGGSLRLSCAASGFTFSSYAMSWVRQAPGKGLEWVSAISGPNPNKNPNPNPGSGGSLRRSSCFGGRMDRIGAQSGLGCNSFRYGSNPNENPNPNPGSTYYADSVKGRFTISRDNSKNTLYLQMNSLRAEDTAVYYCAKLTGAEYFQHWGQGTLVTVSS[here human IgG1 constant region without letters]
light: B1 light
Consider B5, for which the qualit. activity result was “++ (relative log EC50<0.7 were assessed as very active)”.

The record behind these values is patent US12331094B2 (Bayer Aktiengesellschaft, priority 2018, dated 2025).
